# Assay results reported in PubChem BioAssay AID760 (NMMLSC, 2007).
# Hit rate of the full screen: of about 190,000 compounds, about 360 (0.19%) were called active. Inconclusive results, whose numbers are uncertain, are shown with a selection of clear calls.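 Rule for the calls: active = GTP binding activity at least 20 points away from 100%, either lowered or raised; inconclusive = signal likely due to the compound's own green fluorescence; inactive = the rest.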
# Target: Ras-related protein Rab-2A (Canis lupus familiaris) (UniProt P61105)
# Assay: Rab2 wt fluorescent GTP binding changes, either direction – biochemical, dog, bead-based flow cytometry, multiplex, primary screen (AID 760);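 note: 0% = beads with excess unlabeled GTP and 100% = no-compound control corrected for plate trend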
# Conditions: GST-Rab2 wt beads, Bodipy-GTP binding, at 10 µM
row,Structure (SMILES),GTP binding activity
1,Cc1[nH]n2c(=O)c3c(nc2c1-c1ccccc1)CCC3,inconclusive: 89%
2,O=C(Cc1ccccc1)NCC(=O)OCC(=O)c1cccc([N+](=O)[O-])c1,inconclusive: 96%
3,O=C(CSc1ccc2nnc(-c3cccc(F)c3)n2n1)NCC1CCCO1 (centres undefined),inconclusive: 107%
4,CCn1ncc(Br)c1C(=O)Nc1ccccc1OC,inconclusive: 96%
5,CCC(=O)Nc1cccc(NC(=S)NC(=O)c2ccccc2C)c1,inactive: 96%
6,O=C(N/N=C/c1ccc(Cl)cc1Cl)C(=O)NC1CC1,inactive: 100%
7,Cc1cnc(NC(=O)CSc2nnc(C)s2)s1,inconclusive: 104%
8,COc1ccc(OC)c(C(C(=O)NCc2ccco2)N(C(=O)Cn2nnc3ccccc32)C2CC2)c1 (centres undefined),active: 121% [activator]
9,CCCN(CC1CC1)C(=S)Nc1ccc(Oc2ccccc2)cc1,inactive: 99%
10,OCCNc1nc(SCc2ccccc2)nc2sc3c(c12)CCC3,inactive: 97%
11,O=c1/c(=C/c2ccc(O)c([N+](=O)[O-])c2)sc2nc3ccccc3n12,inconclusive: 88%
12,CCN1CCCc2cc(CN(CCN3CCOCC3)C(=S)Nc3cccc(Cl)c3)ccc21,inactive: 102%
13,C/C(=N/NC(=O)c1ccco1)c1cccnc1,inactive: 101%
14,CCCCN(C(=S)NC(=O)c1ccccc1)c1c(N)n(Cc2ccccc2)c(=O)[nH]c1=O,inconclusive: 96%
15,COc1ccc2c(C)nc(N/C(N)=N/S(=O)(=O)c3ccc(C)cc3)nc2c1,inactive: 87%
16,COc1ccc(CNC(=O)CN(Cc2ccc(OC)cc2)C(=O)c2csnn2)cc1,inactive: 99%
17,C=CCNC(=O)C1(c2ccccc2)CC1(Cl)Cl (centres undefined),inactive: 103%
18,O=C(COC(=O)c1n[nH]c2ccccc12)NCc1ccccc1,inconclusive: 101%
19,Nc1c([N+](=O)[O-])cc(-c2cnc[nH]2)cc1[N+](=O)[O-],active: 77%
20,C[C@@H]1C[C@H](O)c2cc(Cl)ccc2N1,inconclusive: 103%
21,Cc1ccc(CN2CCN(CC(=O)NCc3ccc(Cl)cc3)C2=O)cc1,inconclusive: 101%
22,O=C(Nc1ccc2nc(-c3cccs3)[nH]c2c1)c1cccs1,active: 77%
23,O=c1nc2n(c3c1oc1ccccc13)Cc1ccccc1-2,inconclusive: 92%
24,COc1ccc(S(=O)(=O)N(CCCN2CCCC2=O)Cc2cc3c(C)ccc(C)c3[nH]c2=O)cc1,inconclusive: 90%

row,Structure (SMILES),GTP binding activity
1,COCCNS(=O)(=O)c1cc(C)c(C)cc1C,inconclusive: 98%
2,Cn1c(=O)c2c(nc(N3CCc4ccccc4C3)n2C)n(C)c1=O,inactive: 81%
3,C/C(=N\N(c1ccccc1)c1ccccc1)c1ccco1,inactive: 97%
4,O=C(Nn1cnc2ccccc2c1=O)c1ccc(F)cc1Cl,inconclusive: 93%
5,CCOC(=O)C1CCN(c2cc(C)nc3cc(-c4cccc(F)c4)nn23)CC1,inconclusive: 86%
6,CN1c2ccccc2C(C)(C)C12CC(c1ccc(S(=O)(=O)N3CCCCC3)cc1)=NO2 (centres undefined),inconclusive: 98%
7,CC1CCCN(CCCNC(=O)CCn2nc(-c3ccccc3)ccc2=O)C1 (centres undefined),inconclusive: 102%
8,CC(C)OC(=O)NCCOC(=O)Nc1cccc(Cl)c1,inconclusive: 106%
9,CN(Cc1ccccc1)C(=O)Cn1c(=O)oc2cc(S(=O)(=O)NCc3ccccc3)ccc21,inconclusive: 101%
10,CC1CC(C)CN(CC(O)COc2ccc3c(c2)CCC3)C1 (centres undefined),inconclusive: 100%
11,Cc1ccccc1C(=O)Nc1ccc2c(C#N)c3nc4ccccc4nc3n2c1,active: 76%
12,CC(=O)Nc1ccc(C(=O)NNC(=O)c2cc([N+](=O)[O-])cc([N+](=O)[O-])c2)cc1,inconclusive: 94%
13,CCOc1cc(C)c(S(=O)(=O)Nc2ccc3cn[nH]c3c2)cc1C,inconclusive: 105%
14,COc1ccccc1CNC(=O)c1csc2c1CCCC2,inconclusive: 95%
15,COc1cccc(OC)c1OCCCOc1ccc(C)cc1Br,inactive: 99%
16,COCCCNC(=S)NCCNc1nc2c(C)c(C)ccc2cc1C#N,inactive: 98%
17,COc1ccccc1C(C)NCC(=O)NCC(=O)Nc1ccc(F)c(F)c1F (centres undefined),inconclusive: 96%
18,CC(=O)Oc1ccc2c(c1)cc(C)n2C,inactive: 98%
19,CC(NC(=O)C(=O)N/N=C/c1ccccc1)c1ccccc1 (centres undefined),inconclusive: 107%
20,COc1ccc(-c2nn(CCC(=O)O)cc2/C=C/C(=O)O)cc1[N+](=O)[O-],inactive: 99%
21,Cc1cc2nc3c(=O)n(C4CCCCC4)c(=O)[nH]c3nc2cc1N,active: 73%
22,N#Cc1nn(-c2ccccc2)nc1N1CCCCC1,inactive: 99%
23,CC1CC(C)CN(CCCNC(=O)Cc2c(C(=O)O)[nH]c3ccccc23)C1 (centres undefined),inconclusive: 102%
24,COc1ccc(C(=O)OCC(=O)c2c(N)n(C)c(=O)n(C)c2=O)cc1OC,inconclusive: 90%

row,Structure (SMILES),GTP binding activity
1,CC(=O)Nc1c(Nc2ccccc2)c2ccccc2oc1=O,inconclusive: 96%
2,C=C(C)Cn1c(SCC(=O)N/N=C/c2c(O)ccc3ccccc23)nc2ccccc2c1=O,inconclusive: 89%
3,COc1ccc(OCC(=O)NNc2c3ccccc3nc3ccccc23)cc1,inconclusive: 90%
4,CCN(CC)S(=O)(=O)c1ccc(C)c(NC(=O)Cn2cnc3cc([N+](=O)[O-])ccc3c2=O)c1,inconclusive: 83%
5,CC(NC(=O)COC(=O)CSCc1ccccc1)c1ccccc1 (centres undefined),inconclusive: 96%
6,CCN(CC)S(=O)(=O)c1cccc(C(=O)N2CCCCC2)c1,inconclusive: 90%
7,CN1C(=O)C2(N=c3ccccc3=N2)c2ccccc21,inconclusive: 96%
8,CCCC1=NN2C(=N)/C(=C\c3cc(C)n(-c4cc(C)cc(C)c4)c3C)C(=O)N=C2S1,inconclusive: 82%
9,Cc1ccsc1/C=C(\C#N)C(=O)NCc1ccco1,inconclusive: 101%
10,c1ccc(-c2nc3nc4ccccc4nc3n2Cc2ccco2)cc1,inconclusive: 101%
11,O=[N+]([O-])c1cc(/C=N\Nc2nccs2)ccc1O,inconclusive: 93%
12,COCCNc1nc(=S)[nH]c2cc(OC)c(OC)cc12,active: 69%
13,Cc1ccc(O)c(NC(=O)c2cccc(S(=O)(=O)N3CCCCC3)c2)c1,inconclusive: 93%
14,Cc1ccc(C)c(OCCn2cc(C(=O)O)c3ccccc32)c1,active: 138% [activator]
15,O=c1c2ccccc2sn1-c1ccccc1,inconclusive: 100%
16,O=C(NCc1cccnc1)Nc1cccc(NC(=O)NCc2cccnc2)c1,inconclusive: 109%
17,COc1ccc(N=C2S/C(=C\c3ccc(N4CCOCC4)o3)C(=O)N2CCc2c[nH]c3ccccc23)cc1,inconclusive: 150%
18,Cc1cccn2c(=O)c(/C=N/O)c(N3CCCCC3)nc12,inconclusive: 92%
19,CSc1nc2c(c(=O)n1C)SC(C)C2 (centres undefined),inconclusive: 106%
20,Cc1ccc(S(=O)(=O)N(C)C)cc1NC(=S)N1CCCCC1CO (centres undefined),inconclusive: 97%
21,O=C(CN1C(=O)c2ccccc2S1(=O)=O)Nc1cccnc1,inconclusive: 98%
22,Cc1cc(C)n(C(C)n2nc(C)cc2C)n1,inactive: 99%
23,COc1ccc(Cn2cc(F)c(=O)n(CCC(C)C)c2=O)cc1[N+](=O)[O-],inactive: 95%
24,CCCCNC(=O)c1onc(CSc2ccccc2C)c1C(=O)O,inconclusive: 85%

row,Structure (SMILES),GTP binding activity
1,Cc1cc(C(=O)N/N=C/c2ccccc2[N+](=O)[O-])c(C)o1,inactive: 95%
2,COc1ccc([N+](=O)[O-])cc1NC(=S)NC(NC(=O)Cc1ccc(OC)c(OC)c1)C(Cl)(Cl)Cl (centres undefined),active: 55%
3,Cn1nc(-c2ccc(Cl)cc2)c2cc(C(=O)NCCN3CCOCC3)sc21,inconclusive: 85%
4,CCOc1ccc(C(=O)Nc2ccccc2C(=O)O)cc1,inconclusive: 93%
5,Cc1ccc(-c2noc(CN3C(C)CCCC3C)n2)cc1 (centres undefined),inconclusive: 67%
6,CCN(C(=O)CSc1nnc(-c2ccncc2)n1C)C1CCS(=O)(=O)C1 (centres undefined),inconclusive: 106%
7,COc1ccc(/C=C/C(=O)NC(C)CCc2ccccc2)cc1 (centres undefined),inactive: 100%
8,CCOC(=O)C1(Cc2ccccc2)CCN(Cc2ccc3cc(NC(C)=O)ccc3n2)CC1,inactive: 100%
9,CC1CN(c2nc3c(c(=O)n(Cc4ccc(Cl)c(Cl)c4)c(=O)n3C)n2C)CC(C)O1 (centres undefined),inconclusive: 93%
10,Oc1c(Cl)cc(Cl)cc1C=Nc1ccc2c(c1)OCCO2,inconclusive: 85%
11,CC(C)(CO)CNC(=O)c1ccc(OC2CCN(C(=O)C3CC3)CC2)cc1,inactive: 99%
12,Cc1cccc(-c2nnnn2-c2cccc(C)c2)c1,inconclusive: 93%
13,CC1=CC(C)(C)Nc2ccc(OC(=O)c3ccco3)cc21,inconclusive: 88%
14,COc1ccc(Cc2c(O)nc(SCC(=O)NC(C)(C)C)[nH]c2=O)cc1,inactive: 99%
15,CCCc1nc(C)c(-c2ccc(OC)c(OC)c2)c(=O)[nH]1,inconclusive: 105%
16,CCOC(=O)c1c(C)[nH]c2cc(Br)c(O)cc12,inconclusive: 89%
17,CC1CCc2cc(F)ccc2N1S(=O)(=O)c1ccc(Cl)nc1 (centres undefined),inconclusive: 100%
18,Cc1cc(C)n2nc(SCC(=O)Nc3ccccc3)nc2n1,inactive: 97%
19,Cc1ccc2cc3cc(C(=O)N4CCN(Cc5ccccc5)CC4)sc3nc2c1,inconclusive: 175%
20,CC(Oc1ccccc1)C(=O)Nc1oc(-c2ccco2)c(-c2ccco2)c1C#N (centres undefined),inconclusive: 91%
21,O=C(/C=C/c1ccccc1)NC(NC(=S)Nc1ccc(Cl)cc1)C(Cl)(Cl)Cl (centres undefined),inconclusive: 93%
22,Cn1nc(-c2ccc(Cl)cc2)c2cc(C(=O)NC3CC3)sc21,inconclusive: 89%
